Test results published in PubChem BioAssay AID504832 (National Center for Advancing Translational Sciences (NCATS), 2011).
In all, about 310,000 compounds went through this assay and about 18,000 (5.8%) were called active. This list was built around the results that the source calls inconclusive (neither active nor inactive); the mix of calls is not that of the screen. The call rests on the fitted dose curve; in most records, active means well fitted inhibition curve with a large enough effect; inconclusive means small, poorly fitted or top-dose-only effect, or another doubt; inactive means no such curve, though single readings can be large or run the other way. Potencies of inconclusive entries are left out as doubtful fits.

Assay: Primary qHTS for delayed death inhibitors of the malarial parasite plastid, 48 hour incubation
Details: P. falciparum luciferase growth in erythrocytes; series mostly up to 28.7 µM
In short: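 Luciferase-expressing P. falciparum in infected erythrocytes (2% hematocrit, 0.1% parasitemia final) in RPMI 1640/0.5% Albumax were exposed to compound for 48 hours at 37 C, 5% CO2; growth read as luminescence.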
Potency means the concentration at half of the fitted maximal effect; tags describe the fitted curve by direction and shape.

SMILES	Potency
Cc1ccc(C)c(CSC2=NCCN2C(=O)Cc2ccc([N+](=O)[O-])cc2)c1	inconclusive [inhibitor, partial curve, poor fit]
CCCCN(C(=O)c1ccc(S(=O)(=O)N(CC)CC)cc1)c1c(N)n(CCC)c(=O)[nH]c1=O	inactive
N/C(Cc1ccc([N+](=O)[O-])cc1)=N\OC(=O)c1cccc(Br)c1	inconclusive [inhibitor, single point]
COc1ccc(OC)c(S(=O)(=O)N(C)CC(=O)N2CCN(c3ccccc3)CC2)c1	inconclusive [inhibitor, single point]
S=C1NCCc2ccc(Cl)cc2C1c1ccccc1Cl (stereo not given)	active: 11.7 µM
CCCCNC(=S)NNC(=O)c1csc(C)c1	inactive
CCOC(=O)N1CCC(NC(=O)C2CCCN(S(=O)(=O)c3ccc4c(c3)oc(=O)n4C)C2)CC1 (stereo not given)	inactive
Cc1noc(C)c1CSCC(=O)N(C)CC(=O)Nc1ccc(Cl)c(Cl)c1	inconclusive [inhibitor, single point]
CCc1noc(C)c1C(=O)Nc1cc(S(=O)(=O)N(CC)CC)ccc1N1CCOCC1	inconclusive [inhibitor, partial curve, poor fit]
CN(C)S(=O)(=O)c1ccc(N2CCN(S(=O)(=O)c3ccc(F)cc3)CC2)c(Cl)c1	active: 7.38 µM
Cc1nn(-c2ccccc2)c(Cl)c1C(=O)Nc1ccccc1	inconclusive [inhibitor, single point]
Cc1cccc(Nc2c3c(nc4ncnn24)CCC3)c1	inconclusive [inhibitor, single point]
O=C(COc1ccccc1)Nc1ccc(N2CCCCC2)cc1	inactive
COc1ccccc1OCC(=O)/C=C1/N(C)c2ccccc2C1(C)C	inconclusive [inhibitor, single point]
COc1cccc(CNc2nc(C(F)(F)F)nc3ccccc23)c1	inconclusive [inhibitor, partial curve]
O=C(Cc1ncc(C(F)(F)F)cc1Cl)NCCc1ccccc1	inactive
Cc1ccc(C(=O)CSc2ncn[nH]2)cc1	inactive
COc1ccc(-n2c(CN3CCN(C)CC3)nc3ccc([N+](=O)[O-])cc3c2=O)c(OC)c1	inconclusive [inhibitor, partial curve, poor fit]
CCOc1ccc(NC(=O)c2nn(-c3ccc(OC)cc3OC)c(=O)c3ccccc23)cc1	inconclusive [inhibitor, single point]
O=c1ccc(-c2nc3cc(Cl)ccc3n2Cc2ccccc2)c[nH]1	inconclusive [inhibitor, partial curve, poor fit]
CCOC(=O)C1(Cc2ccccc2C)CCCN(C(=O)c2cc(C3CC3)[nH]n2)C1 (stereo not given)	inconclusive [inhibitor, partial curve, poor fit]
CC(=O)NC1(C(F)(F)F)NC(=O)N(C2CCCCC2)C1=O (stereo not given)	inconclusive [inhibitor, full curve, poor fit]
CC1CCCC(NC(=O)CSc2ccc(F)cc2)C1C (stereo not given)	inactive

SMILES	Potency
CCOC(=O)C(C)n1cnc2scc(-c3ccc(C)c(C)c3)c2c1=O (stereo not given)	inconclusive [inhibitor, single point]
COc1ccc(C(=O)NC2CCN(C(=O)NCc3ccccc3)CC2)cc1	inactive
CN(C)S(=O)(=O)c1cccc(C(=O)NCCc2ccccc2)c1	inactive
[N-]=[N+]=NC(c1ccccc1)c1nc2ccccc2[nH]c1=O (stereo not given)	inactive
Cc1nc2ccc(NC(=O)c3ccc(C)c(S(=O)(=O)N4CCOCC4)c3)cc2s1	inconclusive [inhibitor, single point]
Cc1ccc(C2(CCNCc3ccco3)CCOC(C(C)C)C2)cc1 (stereo not given)	inconclusive [inhibitor, single point]
CCC(=O)N1CCc2cc(S(=O)(=O)CCC(=O)N3CCN(c4ccc(C(C)=O)cc4)CC3)ccc21	inconclusive [inhibitor, partial curve]
CSCCC(C(=O)OC1CCOC1=O)N1C(=O)c2ccccc2C1=O (stereo not given)	inactive
COC(=O)c1ccc(NC(=O)c2cn(-c3ccccc3)nc2-c2ccncc2)cc1	active: 11.7 µM
Cc1ccc(Sc2nnc(-c3ccccc3)cc2C#N)cc1	inconclusive [inhibitor, single point]
O=C(O)/C=C/c1ccccc1Oc1ccc(Cl)cc1Cl	inconclusive [inhibitor, full curve]
CC1CCCCN1CC(O)c1c[nH]c2ccccc12 (stereo not given)	inconclusive [inhibitor, partial curve, poor fit]
COC(=O)c1cc(S(=O)(=O)NCC2CCN(Cc3ccccc3F)CC2)c[nH]1	inactive
Cn1c2ccccc2c(=O)c2c(=O)n(-c3ccccc3)c(C3CCCCC3)nc21	active: 9.28 µM
CCc1c(C)nc2ncnn2c1N1CCC(C(=O)Nc2ccc(C)cc2)CC1	inconclusive [inhibitor, partial curve]
COCCCNc1nc(N)c([N+](=O)[O-])c(N2CCCCCC2)n1	inconclusive [inhibitor, single point]
ClCC1NCC(c2ccccc2Cl)c2c1[nH]c1ccccc21 (stereo not given)	inconclusive [inhibitor, partial curve]
O=C(c1ccc(S(=O)(=O)Cc2cc(F)ccc2F)c([N+](=O)[O-])c1)N1CCCCC1	active: 14.7 µM
N#CCSc1nc2sc3c(c2c(=O)n1C1CCCCC1)CCCC3	inconclusive [inhibitor, full curve, poor fit]
CC(OC(=O)c1cccc(S(=O)(=O)N2CCCCCC2)c1)C(=O)Nc1ccc(S(N)(=O)=O)cc1 (stereo not given)	inconclusive [inhibitor, single point]
Cn1c(CCCNC(=O)c2ccccc2)nc2ccccc21	inactive
CSc1cccc(CN2CCC(CO)(Cc3cccc(C(F)(F)F)c3)CC2)c1	inconclusive [inhibitor, partial curve, poor fit]
